One molecule from article PMC10419456, “Interaction of L1CAM with LC3 Is Required for L1-Dependent Neurite Outgrowth and Neuronal Survival” (International Journal of Molecular Sciences, 2023) can be followed below.

This experiment deals with Recombinant human LC3B (human, UniProt Q9GZQ8). Kind of experiment: ELISA; recombinant LC3B substrate-coated (25 µL of 10 µg/mL, 384-well plate, overnight 4 °C); increasing concentrations of L1-ICD, CHL1-ICD, L1/Fc or CHL1/Fc for 1 h at room temperature; PBS with MgCl2 and CaCl2, washes with PBST; detected with L1 antibody C-2, CHL1 antibody C-18 or HRP-coupled anti-Fc antibody. To be noted: both partners purified.

B1: L1/Fc, fusion protein of the extracellular domains of L1 and Fc from human IgG (Fc fusion)
chain: not shown
notes: neural cell adhesion molecule L1, mouse, extracellular domains, […]; source: recombinant, production and purification as described [69]
In the case of B1, the binding result is “binds”.
